Reference: US20250145963A1, “Improved Differentiation Method” (Koninklijke Nederlandse Akademie Van Wetenschappen, priority 2016, published 2025)

Columns and labels:
glucocorticoid receptor = target: T1, glucocorticoid receptor (Homo sapiens, UniProt P04150); conditions: oral dosing; in comparison to cortisol; cited from earlier work
T1 sequence (P04150 1-777): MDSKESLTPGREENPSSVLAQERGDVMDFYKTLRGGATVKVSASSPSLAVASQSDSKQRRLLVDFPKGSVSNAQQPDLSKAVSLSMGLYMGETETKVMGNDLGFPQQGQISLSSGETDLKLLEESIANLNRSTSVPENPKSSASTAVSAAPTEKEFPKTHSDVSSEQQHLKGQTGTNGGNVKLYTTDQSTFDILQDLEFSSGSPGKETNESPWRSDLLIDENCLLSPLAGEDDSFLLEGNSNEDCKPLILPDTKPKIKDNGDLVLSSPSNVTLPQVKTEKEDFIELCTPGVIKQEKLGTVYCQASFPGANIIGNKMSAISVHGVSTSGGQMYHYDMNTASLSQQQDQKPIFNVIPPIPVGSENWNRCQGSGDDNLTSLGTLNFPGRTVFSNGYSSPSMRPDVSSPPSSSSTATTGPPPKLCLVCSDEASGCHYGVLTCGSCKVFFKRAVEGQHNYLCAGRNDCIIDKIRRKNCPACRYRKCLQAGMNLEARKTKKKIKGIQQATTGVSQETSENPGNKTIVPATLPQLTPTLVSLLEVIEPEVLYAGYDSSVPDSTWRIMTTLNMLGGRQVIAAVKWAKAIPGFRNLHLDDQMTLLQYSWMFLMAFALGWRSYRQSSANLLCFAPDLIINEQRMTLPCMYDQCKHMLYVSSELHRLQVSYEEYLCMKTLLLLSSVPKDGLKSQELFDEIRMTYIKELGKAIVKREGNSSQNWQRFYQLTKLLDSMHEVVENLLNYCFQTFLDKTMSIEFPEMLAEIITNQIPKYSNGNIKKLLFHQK

intestinal organoids = assay: Marker analysis of EECs (CHGA) and Paneth cells (LYZ) in treated organoids; assay type: cell-based, mouse; conditions: 4 days treatment
Lgr5+ stem cells = assay: RNA sequencing of FACS-isolated active and quiescent Lgr5+ stem cells

C[C@]12CCC(=O)C=C1CC[C@@H]1[C@@H]2[C@@H](O)C[C@@]2(C)[C@H]1CC[C@]2(O)C(=O)CO [Cortisol (hydrocortisone), Cortisol]
Glucocorticoid potency (glucocorticoid receptor): 1

C[C@]12CCC(=O)C=C1CC[C@@H]1[C@@H]2C(=O)C[C@@]2(C)[C@H]1CC[C@]2(O)C(=O)CO [Cortisone]
Glucocorticoid potency (glucocorticoid receptor): 0.8

C[C@H](NC(=O)Cc1cc(F)cc(F)c1)C(=O)N[C@H](C(=O)OC(C)(C)C)c1ccccc1 [DAPT]
secretory cell differentiation (EEC, Paneth, Goblet cell numbers) (intestinal organoids): large increase in the number of LYZ+ Paneth cells

COc1cc2ncnc(Nc3ccc(F)c(Cl)c3)c2cc1OCCCN1CCOCC1 [Gefitinib]
secretory cell differentiation (EEC, Paneth, Goblet cell numbers) (intestinal organoids): inhibited Goblet cell differentiation, but spared Paneth cells and EECs
Etv5 down-regulation in quiescent Lgr5+ stem cells (Lgr5+ stem cells; d4, p-adj<0.001): 7.7 ×
Ccnb1 decrease in quiescent Lgr5+ stem cells (Lgr5+ stem cells; d4, p-adj<0.005): 2.1 ×
Rnf43 increase in quiescent Lgr5+ stem cells (Lgr5+ stem cells; d4, p-adj<0.005): 2.3 ×
Ccnb2 decrease in quiescent Lgr5+ stem cells (Lgr5+ stem cells; d4, p-adj<0.05): 1.9 ×
Dclk1 increase in quiescent Lgr5 cells (Lgr5+ stem cells; d4, p-adj<0.05): 6 ×
Chga higher in quiescent compared to active Lgr5+ stem cells (Lgr5+ stem cells; d4, p-val=0.019, padj=0.28): 7.3 fold
Lgr5 increase in quiescent Lgr5+ stem cells (Lgr5+ stem cells; d4, padj<0.05): 2 ×

C[C@]12C=CC(=O)C=C1CC[C@@H]1[C@@H]2[C@@H](O)C[C@@]2(C)[C@H]1CC[C@]2(O)C(=O)CO [Prednisolone]
Glucocorticoid potency (glucocorticoid receptor): 4

C[C@]12C=CC(=O)C=C1CC[C@H]1[C@@H]3C[C@@H](O)[C@](O)(C(=O)CO)[C@@]3(C)C[C@H](O)[C@@]12F [Triamcinolone]
Glucocorticoid potency (glucocorticoid receptor): 5
